Laboratory results: PubChem BioAssay AID588453 (National Center for Advancing Translational Sciences (NCATS), 2011)
About 4,000 (1%) of roughly 390,000 compounds were called active. Inconclusive means that the source gave no clear call. Such entries were picked first, then a sample of the others. The call rests on the fitted dose curve; in most records, active means well fitted inhibition curve with a large enough effect; inconclusive means small, poorly fitted or top-dose-only effect; inactive means no such curve, though single readings can be large or run the other way. Potencies of inconclusive entries are doubtful fits and often do not repeat.

What follows are molecules tested against Thioredoxin reductase 1, cytoplasmic (Rattus norvegicus) (UniProt O89049) (assay: qHTS Assay for Inhibitors of Mammalian Selenoprotein Thioredoxin Reductase 1 (TrxR1): qHTS). Conditions: recombinant rTrxR1, NADPH fluorescence consumption, selenite substrate; series mostly up to 114 µM; activity change, negative = inhibition: at the top concentration.
UniProt O89049, sequence (O89049 whole entry, looked up): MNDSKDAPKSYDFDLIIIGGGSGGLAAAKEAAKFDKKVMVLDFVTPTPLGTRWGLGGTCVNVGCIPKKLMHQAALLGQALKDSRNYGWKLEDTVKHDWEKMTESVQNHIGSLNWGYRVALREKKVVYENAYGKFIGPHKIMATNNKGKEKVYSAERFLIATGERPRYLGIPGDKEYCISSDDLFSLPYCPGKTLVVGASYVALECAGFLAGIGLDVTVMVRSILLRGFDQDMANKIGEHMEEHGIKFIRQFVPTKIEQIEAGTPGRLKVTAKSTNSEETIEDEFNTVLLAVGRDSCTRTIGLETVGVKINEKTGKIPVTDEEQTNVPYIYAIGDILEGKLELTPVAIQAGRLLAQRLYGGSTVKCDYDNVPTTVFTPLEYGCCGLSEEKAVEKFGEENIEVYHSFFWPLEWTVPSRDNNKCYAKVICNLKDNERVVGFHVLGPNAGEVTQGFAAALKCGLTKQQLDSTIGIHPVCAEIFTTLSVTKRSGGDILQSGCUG
How it was run: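 Rat TrxR1 (90 nM in the dispensed reagent) was pre-reduced with 400 uM NADPH for 5 min at room temperature, then incubated with compound for 15 min. After 400 uM selenite was added, NADPH fluorescence (Ex 340/Em 450 nm) was followed for 8 min.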
Further: nearly all actives have a fitted effect of over 65% in size.
On the % scale 0 is the no-effect control and ±100 the full control effect; potency means the concentration at half of the fitted maximal effect; tags describe the fitted curve by direction and shape.

SMILES | Potency | activity change, negative = inhibition
COc1cccc(OC)c1C(=O)NC(=S)N1CCCCC1c1cccnc1 (stereo not drawn) | inconclusive: 79.4 µM [inhibitor, partial curve, poor fit] | 
Cc1ccc(NC(=S)NNC(=S)NCc2ccccc2)cc1 | inconclusive: 0.282 µM [inhibitor, full curve, poor fit] | 
CCN(CC)S(=O)(=O)c1nnc(NC(=O)COc2ccc(C)cc2)s1 |  | inactive: -16.8%
O=C1Nc2cc(S(=O)(=O)N3CCCC3)ccc2N2CCCC12 (stereo not drawn) | active: 50.1 µM | 
Cc1ccccc1OCC(=O)NN1C(=O)C2C3C=CC(O3)C2C1=O (stereo not drawn) | active: 31.6 µM | 
O=C(CCS(=O)(=O)c1ccccc1Cl)NCc1ccc(F)cc1 | inconclusive: 50.1 µM [inhibitor, partial curve] | 
N#CC1=C(N)S[C@H](C(=O)C23CC4CC(CC(C4)C2)C3)[C@H]1c1ccncc1 | inconclusive: 15.8 µM [inhibitor, partial curve] | 
COc1ccc(CN2CCc3cc(OC)c(OC)cc3C2)cc1O |  | inactive: 2.37%
OCCCn1c(CCCNc2nc(-c3cccc(Br)c3)cs2)nc2cc(Cl)c(N3CCCCC3)cc21 |  | inactive: 21.4% [at 57.1 µM]
Cc1ccc(Cl)cc1N1CCN(C(=O)c2cc3c(=O)n(C)c4ccccc4c3n2C)CC1 |  | inactive: -5.59% [at 57.1 µM]
CCC(=O)Nc1cccc(NC(=S)NC(=O)Cc2ccccc2)c1 | inconclusive: 28.2 µM [inhibitor, single point] | 
COc1ccc(-n2c(-c3ccccc3F)nc3c(cnn3-c3ccc(C)cc3)c2=O)cc1 |  | inactive: 39.2%
C=CS(=O)c1sc(Cl)c(N2CCOCC2)c1[N+](=O)[O-] (stereo not drawn) | inconclusive: 0.316 µM [inhibitor, full curve, poor fit] | 
O=C1CCCN1CCCNC(=S)Nc1ccc(Nc2ccccc2)cc1 | inconclusive: 20 µM [inhibitor, full curve, poor fit] | 
O=C1[C@@H]2C(Cc3ccc(O)cc3)NC3(C(=O)Nc4ccc(F)cc43)[C@@H]2C(=O)N1c1ccccc1 (stereo partly drawn) | inconclusive: 89.1 µM [inhibitor, single point] | 
COc1ccc(NC(=O)C2=C(C)Nc3ncnn3C2c2sccc2C)cc1 (stereo not drawn) |  | inactive: 10.9% [at 57.1 µM]
CC(=O)N1CCCC1c1nc2ccccc2n1Cc1c(F)cccc1Cl (stereo not drawn) |  | inactive: 13.3%
Nc1cc(C(=O)O)c(Oc2ccc(Cl)cc2Cl)cc1C(=O)O | inconclusive: 89.1 µM [inhibitor, single point] | 
COc1cc(OC)cc(C(=O)NC(=S)NCc2ccco2)c1 | inconclusive: 10 µM [inhibitor, full curve, poor fit] | 
O=C(COC(=O)c1ccc(Cl)cc1[N+](=O)[O-])NCc1ccco1 | inconclusive: 39.8 µM [inhibitor, partial curve] | 
CC(=O)Nc1ccc(-c2csc(NCc3ccco3)n2)cc1 |  | inactive: 1.71% [at 57.1 µM]
O=c1cc(CCl)nc2scc(-c3ccccc3)n12 | inconclusive: 50.1 µM [inhibitor, partial curve] | 
O=C(CCl)Nc1ccc(-c2ccccc2)cc1 | active: 11.2 µM | 

SMILES | Potency | activity change, negative = inhibition
CCOc1ccc(CN2CCNC(=O)C2CC(=O)N(C)C2CCCCC2)cc1 (stereo not drawn) | inconclusive: 28.2 µM [inhibitor, full curve] | 
O=C(c1cccc2ccccc12)N1CCN(Cc2ccccc2F)CC1 |  | inactive: 18.7%
CC(C)NC1=C(Cl)C(=O)c2ccccc2C1=O | inconclusive: 39.8 µM [inhibitor, single point] | 
O=C(NCc1ccccn1)C(=O)N/N=C/c1ccc2c(c1)OCO2 | inconclusive: 25.1 µM [inhibitor, full curve, poor fit] | 
Cc1cc(-c2[nH]nc3c2C(c2cccc(O)c2)C(C#N)=C(N)O3)c(C)s1 (stereo not drawn) | inconclusive: 31.6 µM [inhibitor, single point] | 
CC(C)Cn1c(N)c(C(=O)NCC2CCCO2)c2nc3ccccc3nc21 (stereo not drawn) |  | inactive: 9.12% [at 57.1 µM]
CCCNC(=O)C/C(C)=N/NC(=O)C(=O)Nc1ccccn1 | active: 63.1 µM | 
O=C(/C=C/c1ccco1)Nc1ccc(Oc2ccccc2)cc1 | inconclusive: 22.4 µM [inhibitor, partial curve, poor fit] | 
O=C(N/N=C\c1ccc(-c2ccc([N+](=O)[O-])cc2)o1)c1ccc2c(c1)OCO2 | inconclusive: 89.1 µM [inhibitor, partial curve, poor fit] | 
CC(C)CCNC(=O)C(c1ccncc1)N(Cc1cccs1)C(=O)Cn1nnc(-c2ccc(F)cc2)n1 (stereo not drawn) | inconclusive: 28.2 µM [inhibitor, full curve, poor fit] | 
Cc1cc(-c2n[nH]c(=S)n2Cc2ccco2)nn1C | inconclusive: 6.31 µM [inhibitor, partial curve, poor fit] | 
C=CCc1ccccc1OCC(O)CN(CC)CC (stereo not drawn) | inconclusive: 39.8 µM [inhibitor, single point] | 
Cc1ccc(-c2noc(-c3nnn(CC(=O)Nc4ccc(C)cc4Cl)c3N)n2)cc1 |  | inactive: 24.9%
CCOC(=O)N=Nc1c(O)n(CC(=O)OC)c2ccccc12 |  | inactive: -0.125% [at 57.1 µM]
COc1ccccc1CN1C[C@@H]2C[C@@H](c3ccc4nsnc4c3)N3CCC[C@@]23C1=O | inconclusive: 44.7 µM [inhibitor, partial curve, poor fit] | 
O=C(/C=C/c1ccco1)N1CCCC(c2ccccc2)C1 (stereo not drawn) | active: 31.6 µM | 
COc1ccc(/C=C/C(=O)c2c(O)c(OC)c3occc3c2OC)cc1 | inconclusive: 39.8 µM [inhibitor, partial curve] | 
CCc1ccc(OCC(=O)NC(=S)Nc2ccc(C(C)=O)cc2)c(Br)c1 | inconclusive: 70.8 µM [inhibitor, single point] | 
O=C(c1ccc(-c2cccc(C(F)(F)F)c2)o1)N1CCCCCCC1 | inconclusive: 56.2 µM [inhibitor, single point] | 
CS(=O)(=O)c1ncc(Cl)c(C(=O)N(Cc2ccc(Cl)cc2)Cc2ccco2)n1 | active: 0.708 µM | 
O=C(O)Cc1sc(Nc2ccccc2)nc1-c1cccs1 | inconclusive: 15.8 µM [inhibitor, partial curve, poor fit] | 
O=C(COCc1cc(-c2ccc3c(c2)OCO3)on1)N1CCCCC1 | inconclusive: 70.8 µM [inhibitor, partial curve] | 
Cc1ccc(C(=O)N/N=C/c2ccc(-c3ccc(Br)cc3[N+](=O)[O-])o2)o1 | inconclusive: 22.4 µM [inhibitor, partial curve, poor fit] | 

SMILES | Potency | activity change, negative = inhibition
O=c1c(Cl)c(Cl)cnn1Cc1nnc(-c2ccccc2Br)o1 | inconclusive: 22.4 µM [inhibitor, single point] | 
Cc1ccc(S(=O)(=O)N/N=C\c2cc3c(cc2[N+](=O)[O-])OCO3)cc1 | inconclusive: 3.55 µM [inhibitor, partial curve, poor fit] | 
C=C(C)C1Cc2c(C)nn(-c3nc(C)cc(C)n3)c2C1 (stereo not drawn) | inconclusive: 56.2 µM [inhibitor, partial curve, poor fit] | 
C/C(=N\NC(=O)c1nnn(-c2nonc2N)c1CSc1ccccc1)c1cccnc1 | inconclusive: 35.5 µM [inhibitor, single point] | 
OCCN(Cc1ccccc1)C(=S)Nc1ccc(F)cc1 |  | inactive: 8.16%
Nc1ncc([N+](=O)[O-])c(Oc2ccccc2F)n1 | inconclusive: 56.2 µM [inhibitor, single point] | 
CC(/C=C1\NC(=S)NC1=O)=C\c1ccccc1 | inconclusive: 31.6 µM [inhibitor, partial curve] | 
CCOc1ccc(C(C)=O)cc1COc1ccc(C)nc1[N+](=O)[O-] | inconclusive: 79.4 µM [inhibitor, single point] | 
CCCCCCC(=O)N/N=C/c1ccco1 | inconclusive: 39.8 µM [inhibitor, partial curve, poor fit] | 
O=C(O)CC[C@H](NC(=O)c1ccccc1C(=O)O)C(=O)O |  | inactive: -0.222%
Cc1ccc(N2C(=O)C3C4C=CC(CNC(=S)N5CCN(c6cccc(C)c6)C(C)C5)(O4)C3C2=O)cc1 (stereo not drawn) | active: 15.8 µM | 
CN(C)CCNc1nc(-c2ccco2)c2c(c1C#N)CC(C)(C)OC2 | inconclusive: 79.4 µM [inhibitor, single point] | 
Cc1ccc(S(=O)(=O)/N=C(/NC(=S)Nc2cccc(C)c2)c2ccccc2)cc1 | inconclusive: 70.8 µM [inhibitor, single point] | 
CC(C)OC(=O)c1cccc(C(=O)Oc2ccc(Br)cc2)n1 | inconclusive: 25.1 µM [inhibitor, single point] | 
CCOc1ccc(NC(c2ccccn2)c2oc(CO)cc(=O)c2O)cc1 (stereo not drawn) | inconclusive: 89.1 µM [inhibitor, partial curve, poor fit] | 
O=C(O)c1cccc(-n2cccc2/C=C2/NC(=O)N(c3ccc(Cl)cc3)C2=O)c1 | inconclusive: 12.6 µM [inhibitor, partial curve, poor fit] | 
CC(=O)n1cc([C@H]2C=C(C(=O)N3CCN(Cc4ccccc4)CC3)O[C@@H](OCCCCO)C2)c2ccccc21 | inconclusive: 50.1 µM [inhibitor, partial curve] | 
CCOc1ccc(NC(=S)Nc2cccc3cnccc23)cc1 | inconclusive: 79.4 µM [inhibitor, single point] | 
NC(=S)n1[nH]c(-c2ccc([N+](=O)[O-])cc2)c(N=Nc2ccc(O)cc2)c1=O |  | inactive: -16.6%
CC1(C)OC(=O)N(Cc2ccco2)C1(C)O (stereo not drawn) | inconclusive: 50.1 µM [inhibitor, partial curve, poor fit] | 
COc1cc2[nH]c(=S)nc(NCc3ccccn3)c2cc1OC |  | inactive: 3.77% [at 57.1 µM]
O=C(c1ccccc1)n1c(=O)c(F)cn(COCCBr)c1=O | active: 44.7 µM | 
